The results in this text go back to PMC12136788.

The list shows a part of the results.

T1: UNK ZnF1-3 (human, UniProt Q9C0B0 31-174)
T1 sequence: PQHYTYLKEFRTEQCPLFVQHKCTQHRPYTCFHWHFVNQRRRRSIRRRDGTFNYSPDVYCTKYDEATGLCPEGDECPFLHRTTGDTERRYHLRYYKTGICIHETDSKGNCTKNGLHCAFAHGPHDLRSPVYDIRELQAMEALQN

B1: chr1:66486420:66486421:+_ENSMUSG00000015222_ENSMUST00000077355|mus_hu|motif|central (ssRNA)
RNA: GGGAGUUCUACAGUCCGACGAUCUAAUGUAUUUUUUUUAAAUAGGGAGAGAACCCUGCUAACAUCUACUUUCACAUAUCGGAAAUUGCAACACCAAAGGGUGCAGGAGACACAGAUACUGUGAAUAAAGAAGUAUAAUAUUCACAACAGAGGAUUGAGCAUCA
B2: chr1:154525626:154525627:-_ENSG00000160714_ENST00000292211|hu_mus|FALSE|FALSE (ssRNA)
RNA: GGGAGUUCUACAGUCCGACGAUCAUCAUCUUCAGACUUCUUGCCCUCGGCUGGCUCUUCCUCUUUCAUUUCAUAGUGAUCUAGGUCUUCUGUAUCCUCAGGCAUCUCUUCAUCUUCAUCUUCUGAAGACACUUCUUCCUGCGUCAACAGAGGAUUGAGCAUCA
B3: 169104512_169104632_79_3pUTR_ENSG00000198648_ENST00000355999|human|control|control (ssRNA)
RNA: GGGAGUUCUACAGUCCGACGAUCAGUUGACGAGCGGGAUACCUACAUGGUGUCCCUUUGCAAGACGCCAGUUAGAAAAUAACCCAAGUUGUAAGUUUCCGGCGCUUUACUUGCCGGUAUCCCUUUCCCACCUUGCCUAAUCUACAACAGAGGAUUGAGCAUCA
B4: chr19:45826695:45826696:-_ENSMUSG00000025220_ENSMUST00000026243|mus_mus|FALSE|FALSE (ssRNA)
RNA: GGGAGUUCUACAGUCCGACGAUCACCAAGUAUAACCACAUCCUUUGGAAAUCCUUCCAUUUUUGCAAUUUCAAAACAGCCUAACUUGCUGUAAAAUUCCAGAAUCCUUUUAUCAUCUGGUCUUACUUCACAGAAAGCCCCCCGCAACAGAGGAUUGAGCAUCA
B5: 219457425_219458945_1033_3pUTR_ENSG00000144580_ENST00000542068|human|control|control (ssRNA)
RNA: GGGAGUUCUACAGUCCGACGAUCGUUCUUCACCAGUUGUGCAAGCCAGCGUUUCGUGGUGGUGUCAUCUUUUAGCACCUGGGCGAAGGUUGUGUCUUUCAGCUGGUCAGGGAGGCACUGUCUGAGUGCUUCACGUGCCCUGGGCAACAGAGGAUUGAGCAUCA
B6: 100421932_100422052_550_3pUTR_ENSMUSG00000072294_ENSMUST00000097079|mouse|control|control (ssRNA)
RNA: GGGAGUUCUACAGUCCGACGAUCACUGACUGUACCACCACAGGGAUUCGAUGAACAUGACUGAGUUUGUUAGACUGUAAGUUCAUGGGACUGGAAGGUGGGACCGGAUGGAUGAUGUGCAAGAACUGCUGGCCGCCCACGCCACAACAGAGGAUUGAGCAUCA
B7: chr7:35872420:35872421:+_ENSG00000122545_ENST00000399035|perfect_dup|FALSE|FALSE (ssRNA)
RNA: GGGAGUUCUACAGUCCGACGAUCCACCGAUUUUCUGUAUACUUGAUUUGGGAGAUUGGCAAAUCCCACAUAGCCUUCAAGGUUCUUCUGUUGUACCAUGGUGCUGCUGUUGACGCUCCUCUCCUCAGCAGCAGCGGAUCUCGCCAACAGAGGAUUGAGCAUCA
B8: chr5:22970553:22970554:+_ENSMUSG00000029004_ENSMUST00000094962|mus_mus|FALSE|FALSE (ssRNA)
RNA: GGGAGUUCUACAGUCCGACGAUCAGCACUGGAAGUUUCAUCAAAAUUAGGAGUGGUAAAUAUGCCUACUUCGUUUUUGCUAAUGAGACCUGAUGGAGGAGGGGAUGCUGGAGGUGUUGGAGGAGGACGAGCACCAUAAUUAUGCAACAGAGGAUUGAGCAUCA
B9: 46054269_46054389_565_CDS_ENSG00000136152_ENST00000349995|human|control|control (ssRNA)
RNA: GGGAGUUCUACAGUCCGACGAUCGGUUCCUGUCUUAUUGGACACAAAAAGAUACUGUUUCUGCAAAGACUCCAGAUGCUGAAGAGCACUGUUUACAUCAUUCAAUAUAGCAUCACACUGCUCCUGAAACCCAGACAAGUAAUCCAACAGAGGAUUGAGCAUCA
B10: chr16:8621372:8621373:+_ENSMUSG00000057880_ENSMUST00000065987|mus_mus|motif|central (ssRNA)
RNA: GGGAGUUCUACAGUCCGACGAUCUGUGGUUUUCUACAGUGAACUGUAUAUAUGCGUACAGAGAUAGAUAGGUACAGAUCGGUUAGUACAUGAAUGUGCACAGUUUUUCAUGGUUACUGAGCAUCAGUAAAAAUUAUAAAAAUACAACAGAGGAUUGAGCAUCA
B11: chr12:124105631:124105632:-_ENSG00000111361_ENST00000424014|hu_mus|FALSE|FALSE (ssRNA)
RNA: GGGAGUUCUACAGUCCGACGAUCUACCGUAUCUAAAUUGUUCAUAUAAUUUAUUGAUUUGUUUCCACAUUUAACUUUAAAAAGCUGUUUGGGUUCUAACCAUGUUUAAAGUAAACUCCCAUUUUCUAUAGACAACAUUCUGUGCAACAGAGGAUUGAGCAUCA
B12: 128510396_128511676_419_CDS_ENSMUSG00000014355_ENSMUST00000014499|mouse|control|control (ssRNA)
RNA: GGGAGUUCUACAGUCCGACGAUCUUCCUUCUGUUUCUCAUGGAUUGUAACCUCCUGAAGAGAUCCCACCAAGCCAGCUGCACCAUCAGAAGACCAUAACUCAGAGGCUGGCUGCAGCUGACGAAGCUGAAGGUUCAGAGCGUUCAACAGAGGAUUGAGCAUCA
B13: chr16:45382771:45382772:-_ENSMUSG00000022661_ENSMUST00000163230|mus_mus|mus_mus_mus_hu_True|18_108 (ssRNA)
RNA: GGGAGUUCUACAGUCCGACGAUCCUGAGUGUUAUUGUAAGACAAAUGGACAGGGAGGGCAUGCUUCUCAAAAAAUGUGAGCUAUUGUCUAAGACUAACAAUAUUUAUCUAGCUAUAUAAAAAUAAGAAAUGAAUAAGUUAAGACAACAGAGGAUUGAGCAUCA
B14: chr4:129324761:129324762:-_ENSMUSG00000003731_ENSMUST00000102590|mus_mus|FALSE|FALSE (ssRNA)
RNA: GGGAGUUCUACAGUCCGACGAUCCCAAGCAUACAAGAUUAAUAUGGGUCAGAGCAAGAACACUUUGUUUGGGACUUCUCCCCUCCCCUCCCACCUCCCACCUCUGGAAUAUUCCAUCUGCUCAAGUACCCAAGAGUUACACACCAACAGAGGAUUGAGCAUCA
B15: chr7:54825262:54825263:-_ENSG00000132432_ENST00000352861|hu_hu|hu_hu_hu_mus_False|58_98 (ssRNA)
RNA: GGGAGUUCUACAGUCCGACGAUCCUGCCGGCUGGGCACAAACUGCAGCAUUACCUGAUCCAUGUUUGUUGGAUGGCACACCUAAAACGUAGAGACACGUAGCUCAGGAGAGAACCGAGCCCAACGGAACCGGAAGCUGGCAACCAACAGAGGAUUGAGCAUCA
B16: chr4:38126685:38126686:+_ENSG00000065882_ENST00000510573|hu_mus|FALSE|FALSE (ssRNA)
RNA: GGGAGUUCUACAGUCCGACGAUCGGUCUUCUCCAUCUGCACCAGGCCCAGGUUGGGGAGUGUGUUCUUUAUGAAGUCCACUAUGGUUUCCAGGUUCUCAUGCUGUAGAAUCAAGGGCUUAUGGCUCCCCAAAAGACUUAAAGCCAACAGAGGAUUGAGCAUCA
B17: 114300158_114300769_1724_CDS_ENSMUSG00000021143_ENSMUST00000084891|mouse|control|control (ssRNA)
RNA: GGGAGUUCUACAGUCCGACGAUCUGUCUUGUGAGACAGCUGCUCCACGAAGAGCCGCAGGAUGGCGCUGAGGUAAUGCUGCGCUCCCGCCACUGCGAUCUUCACAGGGGUCGGUGGCUGAGAAUUGCAGUUGCAGUAUCGCUGCAACAGAGGAUUGAGCAUCA
B18: chr8:24049560:24049561:+_ENSMUSG00000031540_ENSMUST00000044331|mus_hu|motif|central (ssRNA)
RNA: GGGAGUUCUACAGUCCGACGAUCACUGCUGACCGAACGGACUGACUGGCUGGGGUGAGACUGAACGGAGGAGAUAGGGCGGUUAUGUUCUGACGCAUGACAGUCUUCAACCAUGGACAUCUGAGGGUCCUCGUCAGCCUGGGUCAACAGAGGAUUGAGCAUCA
B19: chr14:76904430:76904431:+_ENSMUSG00000022010_ENSMUST00000022587|mus_mus|mus_mus_mus_hu_True|8_68 (ssRNA)
RNA: GGGAGUUCUACAGUCCGACGAUCUGCAGCCAAAAACACCCUCGUGGAAAAAAAGAGGGAACACCAGCAGCCUGGUUUAAGCUAGAUAAAAUCUUCUGGCUUUCCGCAGCCCAGGGAGAAACAGAAAUGGUGCUGGCUAAUUUACAACAGAGGAUUGAGCAUCA
B20: chr16:94690093:94690094:+_ENSMUSG00000040785_ENSMUST00000117648|mus_hu|mus_mus_mus_hu_True|28_98 (ssRNA)
RNA: GGGAGUUCUACAGUCCGACGAUCGGGCUGGGAUGACAGCAGACAGCCCUCGAUUCCAGGGGGAAAAAGUCUUAGUCGAUACUAAUUAAAAAGUGUUAAUGAUUUUUAUUACCAAAAUUACAUCUAUAAAAGAUGAAAAGCAAACAACAGAGGAUUGAGCAUCA
B21: chr1:163117127:163117128:-_ENSG00000143248_ENST00000313961|hu_mus|hu_hu_hu_mus_False|68_98 (ssRNA)
RNA: GGGAGUUCUACAGUCCGACGAUCUGCUACAAAGGAUGGAGGAAAUAUCACAGGGCAACUUUUGGAAGCCUGGCUAAAUGACUACUUGAUUAGCUCCUUAUAAAAUUCAGAGCGCACAAAGCGGGGCAGAGAAUCCUUCUCCAUCAACAGAGGAUUGAGCAUCA
B22: chr2:9728443:9728444:-_ENSG00000134308_ENST00000238081|hu_mus|motif|central (ssRNA)
RNA: GGGAGUUCUACAGUCCGACGAUCCUGCAUCUCCUUCUUGCUUAUAUCAAACGCCUCUUGGUAGGCUCCUUGGGAAUUUUCGGUUGUUUGUUUUCGAUCAUCGCCACAAGCUACUUCAGCAAGAUACCGGAAAUAAUCUCCCUUCAACAGAGGAUUGAGCAUCA

The experiment concerns the target T1, UNK ZnF1-3. Description: nsRBNS (natural sequence RNA bind-n-seq); RBNS binding buffer (assumed for nsRBNS): 25 mM Tris pH 7.5, 150 mM KCl, 3 mM MgCl2, 0.01% Triton X-100, 500 ug/ml BSA, 20 U/ml SUPERase-In, 4 C; UNK is unkempt and MSI1 is Musashi-1; names of the RNAs are library labels; protein concentration not given here; high values mean tight binding.
The molecule B1 returned a binding signal of 2.04 enrichment R. Then B2, with 0.33 enrichment R; and B3, with 0.786 enrichment R; and B4, with 0.825 enrichment R.

In turn, B5 gave a binding signal of 0.359 enrichment R. B6: the binding signal came out at 1.34 enrichment R. To B7 belongs 0.645 enrichment R. For B8, the binding signal turned out to be 2.94 enrichment R.

In turn, B9 gave a binding signal of 1.22 enrichment R. To B10 belongs 2.38 enrichment R; to B11, 0.937 enrichment R.

B12 yielded a binding signal of 0.609 enrichment R. B13 displayed a binding signal of 3.09 enrichment R.

As to B14, the binding signal was 1.29 enrichment R. B15 displayed a binding signal of 1.46 enrichment R. Molecule B16 gave a binding signal of 0.819 enrichment R. B17 had a binding signal of 0.616 enrichment R. As to B18, the binding signal turned out to be 0.872 enrichment R. Then B19, with 2.06 enrichment R. Take B20: the binding signal amounted to 2.2 enrichment R. To B21 belongs 1.58 enrichment R; to B22, 0.873 enrichment R.
